This is an account of results in ChEMBL document CHEMBL4888484, “Replenishing the malaria drug discovery pipeline: Screening and hit evaluation of the MMV Hit Generation Library 1 (HGL1) against asexual blood stage Plasmodium falciparum ,using a nano luciferase reporter read-out” (2022).

Hit rate of the full screen: of about 150,000 compounds, about 540 (0.36%) showed an effect of 50% or more. The list shows a part of the results.

The subject of this test is Plasmodium falciparum. Put plainly: Primary screen in NF54 nanoGlo assay, in single point, at 2uM, 72h; a lower Z score goes with more inhibition. The format is functional, Erythrocyte. The following applies: timepoint 72 hour.
For `CN1CCn2ccnc2C12CCN(C(=O)Nc1ccccc1C(F)(F)F)CC2`, the “% Inhibition” value is recorded as -2% and the Z score stood at 0.29.
In the same order, the values of `CC1CCN(C(=O)CCC(=O)N2CCCN(c3nc4cccnc4s3)CC2)CC1` are -11% and 1.1.
The like results for `CC(C)CCN1CC(C)CC(C(=O)O)C1` (stereo not given) were, in that order, 8% and -1.1.
The like results for `CO[C@@H](CNC(=O)NC1CCCC1)c1ccc(C)s1` were, in that order, 15% and -1.95.
On to `CC(C)N(CC(O)COC1C2(C)CCC(C2)C1(C)C)C(C)C` (stereo not given), for which the “% Inhibition” value came to 28% and the Z score is recorded as -3.67.
The like results for `CCOCCC1(CN[C@@H](C)c2cn[nH]c2)CC1` were, in that order, -10% and 1.81.
In the same order, the values of `O=C(c1cccs1)N1CC[C@H](n2cnnc2-c2ccccc2)C1` are 3% and -0.5.
For the molecule `CC(C)OCCCNS(=O)(=O)N1CC(C)OC(C)C1` (stereo not given), the “% Inhibition” value is listed as -12% and the Z score was found to be 1.64.
In the same order, the values of `N#Cc1cccc(C(=O)N2CCC[C@H](c3nccn3CC3CC3)C2)c1` are -5% and 0.99.
In the same order, the values of `CC(C)(C)OC(=O)N(CCCCNC(=O)CC#N)OCc1ccccc1` are -11% and 2.13.
The like results for `CN(C)c1ccnc(C(=O)N2CCN([C@H](C#N)c3ccccc3)CC2)c1` were, in that order, -5% and 0.41.
As to `CCn1nncc1CNC1CCC2(CCOCC2)CC1`, the “% Inhibition” value was 25% and the Z score was -2.78.
The like results for `O=C(NCCc1coc(-c2ccc(F)cc2)n1)c1ccc2nc3n(c2c1)CCC3` were, in that order, -1% and 0.08.
The like results for `CCc1nn(CCc2ccccn2)c(=O)c(C#N)c1CC` were, in that order, -9% and 1.03.
Regarding `CCCc1nc(N2CCCN(C(=O)C(C)C)CC2)c2c(C)nn(-c3ccccc3)c2n1`, the “% Inhibition” value is recorded as -7% and the Z score amounted to 0.65.
The like results for `Cc1ccc(S(=O)(=O)N[C@H]2CCN(c3nccs3)C2)cc1C` were, in that order, -8% and 1.58.
The like results for `CCN1c2cc(C)ccc2-n2cccc2C12CCN(C(=O)Nc1cc(Cl)c(OC)cc1OC)CC2` were, in that order, -13% and 1.83.
For the molecule `Cc1cnc(CCNC(=O)c2nccn2C)n1C1CC1`, the “% Inhibition” value was -4% and the Z score was 0.67.
In the same order, the values of `COC(=O)c1cc(O)cc(C(=O)N(C)CCC2(O)CCCC2)c1` are -12% and 2.08.
The like results for `COc1ccc(CCc2nc(NC(=O)C(C)C)n[nH]2)cc1OC` were, in that order, 13% and -1.63.
As to `CC[C@H](C)OCC(=O)N1CCCCO1`, the “% Inhibition” value is -7% and the Z score amounted to 1.29.
Regarding `C#CCOC[C@@H](O)CN(Cc1ccc(C)cc1)C(C)C`, the “% Inhibition” value is on record as -9% and the Z score came to 1.18.
The like results for `CC(C)Cn1cncc1CNC1CCN(c2ncnc3[nH]cnc23)CC1` were, in that order, 8% and -1.13.
The like results for `Cc1c(-c2cccc(C(=O)N3CCC(c4nncn4C)CC3)c2)cnn1C` were, in that order, -6% and 1.1.
In the same order, the values of `Cc1nn(Cc2ccccc2)c(Cl)c1CN1CCCCC1` are 3% and -0.4.
In the case of `COCc1cc(=O)n(CC(=O)Nc2cccc(C)c2C)c(N2CCOCC2)n1`, the “% Inhibition” value is 35% and the Z score is given as -1.2.
The like results for `CC(C)c1csc(C(=O)N2CCn3c(C(N)=O)cnc3C2)n1` were, in that order, -15% and 1.56.
The like results for `NS(=O)(=O)NC1CN(C(=O)CC2CC3CCC2C3)C1` (stereo not given) were, in that order, -2% and 0.21.
In the same order, the values of `CCc1nnc(CNC(=O)c2cccc(-c3ccc(C(C)C)nn3)c2)s1` are -5% and 0.68.
On to `CC[C@@H](C#N)NC(=O)c1ccc(Br)c(Cl)c1`, for which the “% Inhibition” value is listed as -15% and the Z score is 1.89.
In the case of `COc1ccc(CCNC(=O)C[C@@H]2N=C(O)N(c3ccc(OC)cc3)C2=O)cc1`, the “% Inhibition” value is 0% and the Z score was 0.04.
The like results for `Cn1ccc(CC(=O)NCCCCN2C(=O)c3ccccc3C2=O)n1` were, in that order, -3% and 0.51.
The like results for `CCn1nccc1-c1nc(Cc2ccccc2OC)n[nH]1` were, in that order, -11% and 1.56.
The like results for `CN(CC1CC1)C(=O)C1CCC(=O)N(C2CC2)C1c1ccnn1C` (stereo not given) were, in that order, -5% and 0.63.
With `Cc1cc(=O)c(C(=O)N2CCN(CC(C)C)CC2)c[nH]1`, the “% Inhibition” value is given as -7% and the Z score amounted to 0.63.
The like results for `COc1ccccc1CCNC(=O)C(C)C` were, in that order, -17% and 1.53.
For `N#Cc1c(NC(=O)[C@H]2CCS(=O)(=O)C2)sc2c1CCCCC2`, the “% Inhibition” value is recorded as -10% and the Z score is on record as 1.93.
As for `CCn1ccc(C(=O)N2CCC3(CC2)CC(=O)N(CCCc2ccccc2)C3)n1`, the “% Inhibition” value is 3% and the Z score was -0.63.
The like results for `COc1ccnc(CN2CCC(CNC(=O)c3cnccn3)CC2)c1OC` were, in that order, -5% and 0.69.
The like results for `CCOC(=O)C1(O)CCN(c2ccc3nc(C)nn3n2)CC1` were, in that order, 0% and 0.05.
In the same order, the values of `CCc1nc(CN(C)Cc2cnc3ccccc3c2)n[nH]1` are 0% and -0.05.
For the molecule `Cc1nc(-c2cccs2)sc1CNC(=O)Cc1cccs1`, the “% Inhibition” value is listed as -3% and the Z score was 0.62.
In the same order, the values of `CCS(=O)(=O)c1ccc(Cl)c(C(=O)Nc2c(C)noc2C2CC2)c1` are 6% and -0.86.
In the same order, the values of `COc1cc(OC)cc([C@@H](NC(=O)CCNS(=O)(=O)c2ccc(C)c(C)c2)c2nccn2C)c1` are 2% and -0.29.
In the same order, the values of `O=C(Nc1ccccc1)C1CCN(C(=O)c2sc3ccccc3c2Cl)CC1` are -8% and 1.19.
As to `NC[C@H]1Cc2c(F)ccc(-c3ccc(-c4nc5ccccc5[nH]4)o3)c2O1`, the “% Inhibition” value was -14% and the Z score was 2.32.
On to `CN(C)c1nc(N2CCN(c3ccccc3F)CC2)nc2c1CN(C(=O)c1cccc(F)c1)CC2`, for which the “% Inhibition” value is listed as -5% and the Z score is recorded as 0.66.
The like results for `CCC#CCN1CCOc2c(O)cc(-c3nc(C)cnc3C)cc2C1` were, in that order, 7% and -0.88.
In the same order, the values of `COCC(=O)NC1(CO)CCN(C(=O)OC(C)(C)C)CC1` are 20% and -2.49.
The like results for `Cc1csc([C@@H](C)CNC(=O)CCc2cnccn2)n1` were, in that order, 7% and -0.95.
Take `Cc1nc(-c2csc(S(=O)(=O)N3CCC[C@H](C(=O)NCc4ccccc4C)C3)c2)no1`: the “% Inhibition” value is reported as -12% and the Z score was determined as 1.32.
The like results for `O=C(NCCc1cn2c(n1)CCCC2)C1CCCCC1` were, in that order, -1% and 0.2.
Regarding `COc1cccc(-c2ccc(CN3CCN(C)CC3)cn2)c1F`, the “% Inhibition” value is -21% and the Z score was found to be 2.3.
The like results for `Cc1noc(C)c1S(=O)(=O)N1CCOC[C@H](Oc2ccc(C(F)(F)F)cn2)C1` were, in that order, -7% and 1.13.
For `CC(C)c1cc(C(=O)N2CC[C@@H](CO)[C@@H](O)C2)cs1`, the “% Inhibition” value amounted to 6% and the Z score is recorded as -0.72.
The like results for `Cc1nc(-c2c(C)c(C)nn(C)c2=O)sc1C(=O)NC[C@H](C)N1CCc2ccccc21` were, in that order, 31% and -3.46.
The like results for `O=S1(=O)C[C@@H]2[C@H](C1)N(S(=O)(=O)Cc1ccccc1)CCN2CC1CC1` were, in that order, -8% and 1.45.
In the same order, the values of `CCn1cc([C@H](CC(=O)NCc2ccco2)c2ccc(Cl)cc2)c2ccccc21` are -3% and 0.35.
For `C=CCN(CC=C)S(=O)(=O)c1ccc(Cl)cc1`, the “% Inhibition” value amounted to 34% and the Z score is recorded as -3.89.
In the same order, the values of `CN(Cc1ccc(Cl)s1)C(=O)CN1CCOCC1` are 2% and -0.21.
The like results for `COC(=O)NCC(=O)N1CC[C@H]2[C@H](CCC(=O)N2CCc2ccccc2)C1` were, in that order, 5% and -1.02.
As for `O=C(CCc1c[nH]cn1)NC[C@@H]1C[C@H]1C1CCCCC1`, the “% Inhibition” value is on record as 6% and the Z score was -0.82.
For the molecule `COCCOCCN1CCCN(C)c2ccccc21`, the “% Inhibition” value is recorded as -12% and the Z score came to 1.91.
The like results for `Cc1nn(-c2nc(-c3ccc(F)cc3)cs2)c(C)c1CC(=O)Nc1ccc(Cl)cc1` were, in that order, -7% and 0.77.
In the same order, the values of `OCC1(CCCc2ccccc2)CCN(Cc2cccn2-c2nccs2)CC1` are -7% and 1.05.
In the same order, the values of `CC[C@H](C)N(Cc1c(-c2ccccc2)noc1N1CCC(C)CC1)C(=O)c1cccc(Br)c1` are -10% and 0.95.
Turning to `Cc1ccc([C@H](CCn2cncn2)NCCCn2ccnc2)cc1`, the “% Inhibition” value amounted to 12% and the Z score is recorded as -1.64.
Regarding `CCc1ccc(CNC(=O)c2ncn(C(C)(C)C)n2)s1`, the “% Inhibition” value is -1% and the Z score came out at 0.14.
In the same order, the values of `COCCN1C(=O)CC[C@@H](C(=O)NCCc2c(C)nn(C)c2C)[C@H]1c1ccc(C)cc1` are -14% and 1.78.
Take `CCc1noc(C)c1C(=O)Nc1cc(-c2ccc(=O)[nH]n2)ccc1C`: the “% Inhibition” value was 1% and the Z score is -0.18.
In the same order, the values of `OCCc1cnn(Cc2nnc(-c3cccs3)o2)c1` are -11% and 1.54.
In the same order, the values of `CN(C)CCNC(=O)Nc1cc(Br)c(F)cc1F` are -5% and 0.9.
The like results for `COc1ccc(-c2noc(CN3CCC(C(=O)N4CCOCC4)CC3)n2)cc1OC` were, in that order, -1% and 0.24.
For `COc1cc(NC(=O)CC(F)(F)F)cc(OC)c1Br`, the “% Inhibition” value is reported as -3% and the Z score is recorded as 0.38.
With `CCc1cc(N2CCc3[nH]nc(C(=O)OC)c3C2)ncn1`, the “% Inhibition” value stood at 1% and the Z score is recorded as -0.07.
The like results for `C#CCN(C(=O)[C@H]1CC(=O)N(c2ccc(F)c(F)c2)C1)C1CC1` were, in that order, 6% and -0.8.
In the same order, the values of `CN1C(=O)c2cc(C(F)(F)F)ccc2O[C@H]2CN(Cc3cc(-c4ccccc4)no3)C[C@H]21` are -8% and 1.31.
The like results for `CCN(CC)CC#C[C@H](C)OC(=O)c1sc(-c2nnc[nH]2)nc1C` were, in that order, 4% and -0.71.
As for `O=C(NCCc1nccs1)c1ccc2nc(-c3ccccc3)cn2c1`, the “% Inhibition” value is recorded as -5% and the Z score amounted to 0.71.
In the same order, the values of `O=C(Nc1ccc(-c2ccon2)cc1)N1CCC[C@@H]2COC[C@@H]21` are -4% and 0.63.
Turning to `Cc1nccn1CCN(C)C(=O)c1cc(COc2ccc3c(c2)OCO3)[nH]n1`, the “% Inhibition” value is listed as -7% and the Z score is 1.39.
In the same order, the values of `CC(C)c1ccc(-c2nc(CN3CCCCC3)cc(CN3CCCCC3)c2O)cc1` are 96% and -15.06.
The like results for `N#Cc1ccc(COc2ccc3c(c2)CCC3)cc1` were, in that order, -8% and 1.1.
The like results for `CC(C)Oc1ccc(C(=O)N[C@H]2CCS(=O)(=O)C(C)(C)C2)cc1` were, in that order, 9% and -0.87.
`O=C1NC[C@@]2(CCCN(C(=O)c3ccc(-c4ccco4)cc3)C2)O1`: the “% Inhibition” value is recorded as -13% and the Z score was 2.29.
